In all, about 150,000 compounds went through this assay and about 6,500 (4.3%) were called active. Inconclusive results, whose numbers are uncertain, are shown with a selection of clear calls. The call rests on the fitted dose curve; in most records, active means well fitted inhibition curve with a large enough effect (not every such curve was filed as active); inconclusive means small, poorly fitted or top-dose-only effect, or another doubt; inactive means no such curve, though single readings can be large or run the other way. No potency is given beside an inconclusive call; the fits are too rough.
The compounds below were run against 15-hydroxyprostaglandin dehydrogenase [NAD(+)] (Homo sapiens) (UniProt P15428) (assay: qHTS Assay for Inhibitors of HPGD (15-Hydroxyprostaglandin Dehydrogenase)). Settings: purified HPGD, NADH fluorescence kinetic, PGE2 substrate; activity change, negative = inhibition: stronger effect = lower value.
Chain of UniProt P15428 (P15428 whole entry, looked up): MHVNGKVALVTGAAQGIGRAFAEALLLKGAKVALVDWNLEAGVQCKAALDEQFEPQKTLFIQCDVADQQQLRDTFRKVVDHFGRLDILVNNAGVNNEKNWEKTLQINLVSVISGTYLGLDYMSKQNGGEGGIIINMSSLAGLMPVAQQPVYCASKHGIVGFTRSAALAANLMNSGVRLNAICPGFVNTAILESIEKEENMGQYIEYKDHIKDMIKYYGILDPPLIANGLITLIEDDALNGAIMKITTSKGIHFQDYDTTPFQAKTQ
Outline: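 20 nM HPGD preincubated 15 min at room temperature with compound in 50 mM Tris-HCl pH 8, 0.01% Tween 20. Started with 1 mM NAD+ and 30 uM prostaglandin E2; NADH fluorescence (360/450 nm) read 5 times over 30-s intervals, last minus first.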
On the % scale 0 is the no-effect control and ±100 the full control effect; potency means the concentration at half of the fitted maximal effect; tags describe the fitted curve by direction and shape.

Compound | Potency | activity change, negative = inhibition
S=c1[nH]nc(CSCc2ccc(Cl)cc2Cl)n1-c1ccccc1 | active: 3.16 µM | –
CCNC(=O)CCCOc1ccc(Cl)cc1Cl | active: 14.1 µM | –
CCc1ccc(CNc2ccc(O)cc2)cc1 | active: 22.4 µM | –
Cc1cc2c(C)nc(N/N=C/c3ccc(F)cc3)nc2o1 | inconclusive [inhibitor, single point] | –
Cc1noc(NS(=O)(=O)c2ccc(NC(=O)CS(=O)(=O)c3ccccc3)cc2)c1C | – | inactive: -5.32%
Cc1ccc(NS(=O)(=O)c2cc(-c3n[nH]c(=O)c4ccccc34)ccc2C)cc1 | active: 20 µM | –
Cc1cc(-c2cccnc2)c(C#N)c(SCC#N)n1 | inconclusive [inhibitor, partial curve] | –
COC(=O)c1cc(N2C(=O)C3C(C2=O)C2(C)C=CC3(C)O2)ccc1Cl (stereo unspecified) | active: 2.82 µM | –
CCCCCC(=O)Nc1ccc2oc(-c3cncc(Br)c3)nc2c1 | inconclusive [inhibitor, partial curve] | –
Cc1cc2cc(CN3C(=O)c4ccccc4C3=O)ccc2[nH]1 | inconclusive [inhibitor, partial curve] | –
O=C(NCc1ccc2c(c1)OCO2)c1cc(-c2ccc(Cl)cc2Cl)on1 | – | inactive: -18.1%
COc1ccc2nc(NC(=O)c3ccoc3C)sc2c1 | inconclusive [inhibitor, single point] | –
CN(C(=O)CSc1nc(N)c2c3c(sc2n1)CSC(C)(C)C3)c1ccccc1 | inconclusive [inhibitor, single point] | –
CC(C)(C)C1CCC(=NNC(=O)CN(c2ccccc2)S(=O)(=O)c2ccccc2[N+](=O)[O-])CC1 (stereo unspecified) | – | inactive: -19.8%
COc1ccc(-c2nnc3n2-c2ccccc2SC3)cc1OC | active: 35.5 µM | –
Cc1nc(N=Nc2ccc(C(=O)O)cc2)c(COP(=O)(O)O)c(C=O)c1O | inconclusive [inhibitor, single point] | –
COc1cc(OC)cc(-c2nc(-c3ccc(Br)cc3)no2)c1 | inconclusive [inhibitor, partial curve, poor fit] | –
O=C1N[C@@H](Cc2ccccc2)C(=O)N2CCCC12 (stereo partly specified) | – | inactive: -1.32%
CCN1CCN(c2ccc(NC(=O)c3cccc(OCc4ccccc4)c3)cc2)CC1 | inconclusive [inhibitor, partial curve] | –
O=C(CSc1nnc(NCc2ccccc2)s1)c1ccco1 | inconclusive [inhibitor, partial curve, poor fit] | –
COc1cc2cc(CN(CCc3cccc(C)c3)C(=S)NCCCN(C)C)c(=O)[nH]c2cc1OC | inconclusive [inhibitor, partial curve] | –
CCCNC(=O)CSc1nc(-c2cccs2)cc(C(F)(F)F)n1 | inconclusive [inhibitor, partial curve] | –
CCOCCNC(=O)c1ccc2c3c(cccc13)CC2 | inconclusive [inhibitor, partial curve] | –

Compound | Potency | activity change, negative = inhibition
Cc1ccsc1/C=C\C1=NCCCN1C | – | inactive: -8%
COc1cc(/C=N/NC(=O)CCN2CCN(Cc3ccccc3)CC2)cc(OC)c1OC | inconclusive [inhibitor, partial curve] | –
O=C(COc1ccc(Cl)cc1Cl)Nc1ccc2nc3n(c(=O)c2c1)CCCC3 | active: 10 µM | –
O=C(/C=C\c1ccc(O)c(O)c1)O[C@@H](Cc1ccc(O)c(O)c1)C(=O)O | active: 28.2 µM | –
O=C(c1cccn2c(=O)c3cc(Cl)ccc3nc12)N1CCN(Cc2ccc3c(c2)OCO3)CC1 | inconclusive [inhibitor, partial curve] | –
CCOc1cc(C(=S)N2CCOCC2)ccc1OC(=O)/C=C/c1ccc(OC)c(OC)c1 | – | inactive: -28.9%
Cc1sc2nc(SCc3nnc(-c4cccs4)o3)n(C3CCCC3)c(=O)c2c1C | inconclusive [inhibitor, partial curve] | –
COc1cccc(NS(=O)(=O)c2cc(C)sc2C)c1 | inconclusive [inhibitor, partial curve, poor fit] | –
Cc1noc(C)c1CSc1ncnc2sc(C)c(C)c12 | – | inactive: -29.9%
COc1ccc(CNC(=O)c2cc3c(=O)n4ccccc4nc3n(CC3CCCO3)c2=N)cc1 (stereo unspecified) | inconclusive [inhibitor, single point] | –
COc1ccc(C(=O)c2ccc(CC#N)s2)cc1 | inconclusive [inhibitor, partial curve, poor fit] | –
C#C[C@@]1(O)CC[C@@H]2[C@@H]3CCC4=CC(=O)CC[C@@H]4[C@H]3CC[C@]21CC | – | inactive: 3.77%
COc1cc(NC(=S)NC(=O)c2ccccc2C)ccc1NC(=O)c1cccs1 | inconclusive [inhibitor, single point] | –
O=C(O/N=C1/CCSc2ccccc21)c1ccccc1 | active: 17.8 µM | –
O=c1c(-c2nnc(SCc3ccc(Cl)cc3Cl)o2)cccn1Cc1ccccc1 | inconclusive [inhibitor, partial curve] | –
Cc1ccc(C)c(/C(O)=C2/C(=O)C(=O)N(CCN3CCOCC3)C2c2ccco2)c1 (stereo unspecified) | inconclusive [inhibitor, partial curve] | –
Cc1ccc(-c2nn(C)c(=O)c3ccccc23)cc1S(=O)(=O)N1CCOCC1 | active: 14.1 µM | –
O=C(COC(=O)CCC(=O)c1cccs1)Nc1ccc(Cl)cn1 | inconclusive [inhibitor, partial curve] | –
COCCN(C(=O)C(C)C)c1nnc(-c2cccc(C)c2)s1 | inconclusive [inhibitor, partial curve] | –
CCCSc1nnc(Sc2nnnn2-c2ccccc2)s1 | – | inactive: -28.3%
Cn1nc(CC(=O)N2CCN(c3ccccc3)CC2)c2ccccc2c1=O | – | inactive: -26.5%
COc1cccc(OC)c1C(=O)N1CCN(S(=O)(=O)c2ccccc2)CC1 | – | inactive: -6.12%
O=C(C[n+]1ccc(C(=O)N/N=C/c2ccc(OCc3ccccc3)cc2)cc1)c1ccccc1 | – | inactive: -22.2%

Source: PubChem BioAssay AID894 (National Center for Advancing Translational Sciences (NCATS), 2007)
